From the supplement of paper PMC11417369
± gives the standard deviation of the averaged measurements. The list shows a part of the results.

test system: PfAP2-G AP2 domain (GST-tagged); assay: gcPBM binding intensity (ln(normalized median fluorescence intensity)); higher = stronger DNA binding
Procedure, shortened: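 An Agilent 4 × 180k array of primer-extended double-stranded 36-bp intergenic genomic probes, with negative controls, was incubated for 1 h with GST-tagged P. falciparum DNA-binding domains expressed in E. coli. Alexa488 anti-GST antibody detected bound protein, scanned at 488 nm. Binding intensity is the highest Masliner-normalised natural-log median intensity across replicate spots of either probe orientation.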

| Sequence | gcPBM binding intensity (ln) |
| --- | --- |
| ATAAATCCATGGGTAGTGCGCATTTTTTTTTTTTTT [GTGCAC_site9732] | 10.3 ± 0.18 |
| TTAGTGTATTAATTCTCACACACTAAGAAAAAAAAA [CACACA_site3878] | 10.1 ± 0.33 |
| ATAAAATGTATATGAATGCACTTGAAGTTTTTTTTT | 9.55 ± 0.33 |
| TCTCCTTGTTCCTTTTTTTTAAAAAAAAACATTAAA [CACACA_negctrl_site679] | 10.5 ± 0.41 |
| TATTCTTACACGTTTGCACACTAAAATATATATATA [CACACA_site435] | 10.2 ± 0.18 |
| CATAGGAACATAAGTTGTACGCTATACATACAACAT [XGTACX_site1054] | 11.4 ± 0.8 |
| ATTTAATATATTTATTGTACATATAAAATAAAAGAA [XGTACX_site2413] | 11.2 ± 0.86 |
| TATATGTGACATGAATGTACCCAAATTATATAAGAA [XGTACX_site3937] | 11.2 ± 0.88 |
| TCTGTGTTTTTGGGTACACACAAATAGCTTGTATAT [CACACA_site4002] | 11.5 ± 0.92 |
| TGAAAATTAATAAAAAGTACATAGTCAGATTTGTGA [XGTACX_site2450] | 11.4 ± 0.69 |
| TTCCTTAATCAATATTGTACTTTTTATAAATTTAGT [XGTACX_site3678] | 11.4 ± 0.85 |
| TATTTTTTCTTAAACACACACATATATATATATAAT [CACACA_site5567] | 10.2 ± 0.15 |
| TAATAATAATACCAGCGTACATTTTTCTTTCCTACG [XGTACX_site4056] | 11 ± 0.67 |
| ATTCAATATAAATACACACACACTTTTAATAATTAA [CACACA_site5963] | 10.1 ± 0.26 |
| CCCGAACAAACAAATAAACACACAAAAAAAAATATA [CACACA_site8540] | 10 ± 0.28 |
| TATTGAAAAAATAAAAGTACAAACTCTTATAATATG [XGTACX_site8196] | 11.3 ± 0.79 |
| AACACATACAAACACACACACAAAAAAAAAAAAAAA [CACACA_site393] | 10.1 ± 0.62 |
| ATTATATATGTATGGTGTACTAAGAATATTTTTTTA [XGTACX_site1950] | 11.2 ± 0.79 |
| CTAAACAAAAAATAATGTACACATACATAAAAAATA [XGTACX_site1808] | 11.4 ± 0.76 |
| ATATATATTTTATTATGTACTTACTTCTTTTCTTAA [XGTACX_site6163] | 11.3 ± 0.88 |
| TTTTATAGTCTTATGGGTACAAAATATTAACCCACG [XGTACX_site1131] | 11.1 ± 0.63 |
| ACATTCAATAAACGTCGTACACTTTCCTTTTTATGA [XGTACX_site3274] | 11.5 ± 0.9 |
| AAAAAAACGATCGATCGTACTTATATTTACACATTC [XGTACX_site2883] | 10.8 ± 0.42 |
| ACATGGTGATAATACTGTACAAAAATAAATAAATAC [XGTACX_site897] | 10.9 ± 0.41 |
| TTGTTTGGTTATAATTGTACGCATGTAATTACATAT [XGTACX_site4972] | 11.5 ± 0.91 |
